Measured values reported in publication PMC4336329 (PLoS ONE, 2015).
In all, about 310,000 compounds went through this assay and about 2,200 (0.71%) showed an effect of 50% or more. Effects have a minus sign here. This is one part of the list.

target: human ether-à-go-go-related gene (hERG) potassium channel (human, UniProt Q12809); assay: primary screen, population patch clamp on CHO cells stably expressing hERG
Sequence (Q12809 whole entry, looked up): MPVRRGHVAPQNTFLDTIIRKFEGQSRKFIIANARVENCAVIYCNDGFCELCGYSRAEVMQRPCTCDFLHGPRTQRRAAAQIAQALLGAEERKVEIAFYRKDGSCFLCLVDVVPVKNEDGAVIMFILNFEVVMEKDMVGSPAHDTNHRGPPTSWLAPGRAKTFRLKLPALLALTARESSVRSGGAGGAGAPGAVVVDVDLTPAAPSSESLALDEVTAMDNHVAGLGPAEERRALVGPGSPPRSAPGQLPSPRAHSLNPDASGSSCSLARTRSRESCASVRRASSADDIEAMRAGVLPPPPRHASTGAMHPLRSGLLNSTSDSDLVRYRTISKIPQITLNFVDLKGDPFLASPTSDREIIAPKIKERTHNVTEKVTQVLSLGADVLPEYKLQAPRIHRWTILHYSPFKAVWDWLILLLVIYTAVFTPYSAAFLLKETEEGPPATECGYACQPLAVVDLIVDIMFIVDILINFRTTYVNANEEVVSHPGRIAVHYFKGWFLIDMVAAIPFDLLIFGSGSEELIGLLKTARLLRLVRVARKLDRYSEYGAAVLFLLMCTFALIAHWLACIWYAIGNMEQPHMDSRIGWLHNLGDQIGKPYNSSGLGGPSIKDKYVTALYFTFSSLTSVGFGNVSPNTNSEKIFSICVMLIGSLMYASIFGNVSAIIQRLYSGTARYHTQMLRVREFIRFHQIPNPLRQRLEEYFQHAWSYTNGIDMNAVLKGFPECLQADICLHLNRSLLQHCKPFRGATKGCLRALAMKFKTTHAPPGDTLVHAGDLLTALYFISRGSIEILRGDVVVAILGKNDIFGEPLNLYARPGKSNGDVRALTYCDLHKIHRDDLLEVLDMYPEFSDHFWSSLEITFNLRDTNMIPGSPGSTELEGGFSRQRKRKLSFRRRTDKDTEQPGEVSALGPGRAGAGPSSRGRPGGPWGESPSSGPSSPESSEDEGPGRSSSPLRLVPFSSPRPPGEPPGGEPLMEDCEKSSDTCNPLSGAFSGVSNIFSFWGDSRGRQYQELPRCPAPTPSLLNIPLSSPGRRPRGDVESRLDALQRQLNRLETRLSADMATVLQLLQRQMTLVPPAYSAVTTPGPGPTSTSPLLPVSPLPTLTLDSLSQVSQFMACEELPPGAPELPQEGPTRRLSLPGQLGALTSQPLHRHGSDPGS

SMILES	hERG current change (%, negative = inhibition) at 1uM [%]
Cc1ccc(S(=O)(=O)N2CCC(C(=O)O)CC2)cc1C(=O)O	10.5
NC(=O)c1ccc(-c2ccccc2F)cc1	3.79
CCOc1ccc(NC(=O)CN2C(=O)c3ccccc3C2=O)cc1	10.5
Cc1ccccc1N1CC(=O)Nc2c(oc3nc(-c4ccccc4)cc(C)c23)C1=O	10.4
CC(=O)N1c2ccc(S(=O)(=O)NCC3CCC(C(=O)NC4CCC(C)CC4)CC3)cc2CC1C (stereo not drawn)	11.1
Cc1nn(C(C)c2nc(-c3ccccc3)no2)c(C)c1[N+](=O)[O-] (stereo not drawn)	-10.1
COc1ccccc1C(=O)NCCN1CCN(c2ccccc2)CC1.Cl	12.5
COC(=O)c1oc2ccc(Cl)cc2c1N	9.5
N#Cc1nc(Cc2ccccc2)oc1N1CCN(c2cccc(Cl)c2)CC1	10.2
COc1cc2c(cc1OC)C(=O)NCC(C)(C)O2	2.17
CCc1nc(Nc2ccc(O)cc2)c2oc3ccccc3c2n1.Cl	8.58
O=C(CCS(=O)(=O)c1ccc(Br)s1)NC1CCCCCC1	14.1
COCCCNC(=O)c1c(N)n(-c2cccc(S(N)(=O)=O)c2)c2nc3ccccc3nc12	14.3
Cc1ccc(CN2CC(C(=O)N3CCN(S(=O)(=O)c4c(F)cccc4F)CC3)CC2=O)cc1 (stereo not drawn)	9.3
COc1ccccc1CN(C)C(=O)c1cccc(S(=O)(=O)N2CCc3ccccc3C2)c1	5.01
CCOC(=O)N1CCC(NC(=O)CC2C(=O)NCCN2Cc2ccc(C)cc2)CC1 (stereo not drawn)	-7.97
O=C(Nn1cnc2ccccc2c1=O)c1ccc([N+](=O)[O-])cc1	10.7
COc1ccc(C(=O)/C=C/c2cn(CN3CCN(C)CC3)c3ccccc23)cc1	-3.29
CCC(C)(C)NC(=O)CN(C(=O)CCC(=O)Nc1nccs1)c1ccc(C)cc1	8.06
Cc1cc(OCC(=O)N2CCN(c3ccc(F)cc3)CC2)c2c(C)cc(=O)oc2c1	15.7
Cc1c(NC(=O)CN2C(=O)C(=O)c3ccccc32)c(=O)n(-c2ccccc2)n1C	8.8
CCOC(=O)c1sc(=S)n(-c2cc(F)ccc2F)c1N	7.7
Cc1cc(C(=O)CN2C(=O)NC3(CCCc4sccc43)C2=O)c(C)n1-c1ccccc1 (stereo not drawn)	13.2
CC(/C=C/c1ccc2c(c1)OCO2)=N\NC(=O)C(O)c1ccccc1 (stereo not drawn)	18.4
